A word on the Kd: it is the concentration at which binding is half-saturated.

This test addresses bovine recombinant ADAMTS5 (bovine). Put plainly: KinExA, in solution; free 581 captured on human ADAMTS5 beads. (A kinetic exclusion assay measures how much of one partner remains free in solution.)

B1: Nanobody construct 581 (2F3^SO-35GS linker-Alb11) (bispecific antibody)
chain: DVQLVESGGGVVQPGGSLRLSCAASGRTVSSYAMGWFRQAPGKEREFVAGISRSAERTYYVDSLKGRFTISRDNSKNTVYLQMNSLRPEDTALYYCAADLDPNRIFSREEYAYWGQGTLVTVSSGGGGSGGGGSGGGGSGGGGSGGGGSGGGGSGGGGS[gap - about 120 residues]
As for B1, the Kd was 7.66 pM.
